{"source": "ChEMBL document CHEMBL5308541", "about": "“MAIP: An Open-Source Tool to Enrich High-Throughput Screening Output and Identify Novel, Druglike Molecules with Antimalarial Activity” (ACS Med Chem Lett, 2023)", "note": "Hit rate of the full screen: of about 4,800 compounds, about 410 (8.5%) showed an effect of 50% or more. This is one part of the list.", "data": [{"test_system": "Plasmodium falciparum", "test": "Confirmatory screen in NF54 pLDH assay, in single point, at 2uM, 72h", "type": "functional, Erythrocyte", "conditions": "timepoint 72 hour", "units": {"% Inhibition": "%"}, "values": [{"compound": "O=C(NCc1ccc(N2CCNCC2)c(F)c1)c1ccc(-c2noc(C(F)(F)F)n2)cc1", "% Inhibition": 54}, {"compound": "CCN1CCC[C@H](CN(C)C2CCN(c3ccc(NC(=O)c4ccc(OC)cc4)cc3)CC2)C1", "% Inhibition": 0}, {"compound": "Cc1ccccc1CN1CCC(CNc2c3c(nc4ccccc24)CCC3)CC1", "% Inhibition": 103}, {"compound": "CC(CNc1nc(NCC(C)N2CCOCC2)c2cc(Cl)ccc2n1)N1CCOCC1", "note": "(configuration not stated)", "% Inhibition": 102}, {"compound": "CN1CCN(CC2CCN(c3ccnc4ccccc34)CC2)CC1", "% Inhibition": 103}, {"compound": "Cc1ccc2c(-c3ccccc3CN3CCNCC3)cccc2n1", "% Inhibition": 45}, {"compound": "CCc1ccc2ncnc(NCCCN3CCN(CCO)CC3)c2c1", "% Inhibition": 85}, {"compound": "Cn1cncc1[C@@H]1CNC[C@H]1CNC(=O)c1ccccc1NC1CCCCC1", "% Inhibition": 73}, {"compound": "CN(C)Cc1cccc(CCNCc2csc(-c3ccc(C(F)(F)F)cc3)n2)c1", "% Inhibition": 88}, {"compound": "CCCC(=O)NC1COCC1Cc1ccncc1", "note": "(configuration not stated)", "% Inhibition": 86}, {"compound": "O=C(NCCNc1ccnc2ccncc12)c1ccc(C(F)(F)F)cc1", "% Inhibition": 43}, {"compound": "CN1CCN(CCOc2ccccc2CN(C)Cc2cc3cc(F)ccc3[nH]2)CC1", "% Inhibition": 104}, {"compound": "N#Cc1cccc(Cl)c1N1CCC(N2CCCC2)CC1", "% Inhibition": 38}, {"compound": "CCOc1ccc2nc(N3CCC(N4CCC([C@H](O)c5cccnc5)CC4)CC3)nc(C)c2c1", "% Inhibition": 8}, {"compound": "CCN1C[C@H](Nc2nc(C)nc3sccc23)[C@@H](OC)C1", "% Inhibition": 101}, {"compound": "O[C@H]1CCN(Cc2ccccc2CNc2cccc(-n3ccnc3)n2)C1", "% Inhibition": 101}, {"compound": "Cc1cnccc1NCCNCc1cnc(N2CCCCC2)nc1", "% Inhibition": 62}, {"compound": "OCCCNc1nn2cc(-c3ccc(F)cc3)nc2s1", "% Inhibition": -2}, {"compound": "CN1CCN(CCc2ccc(N[C@H]3CCCN(Cc4ccccc4)C3(C)C)cc2)CC1", "% Inhibition": 16}, {"compound": "Cc1cc(N2CCC(NCCCN3CCCc4ccccc43)CC2)nc(N)n1", "% Inhibition": 88}, {"compound": "O=C(n1nnc2cc(Cl)c(Cl)cc21)C(F)(F)F", "% Inhibition": 39}, {"compound": "C[C@H](Nc1nc(N)c2ccccc2n1)c1cccc(-n2cncn2)c1", "% Inhibition": 29}, {"compound": "Clc1cccc(N2CC[C@H](CNC3CCN(Cc4ccco4)CC3)C2)c1", "% Inhibition": 97}, {"compound": "COC(CN(Cc1nc(N)nc(Nc2ccc(C)cc2)n1)Cc1nc(N)nc(Nc2ccc(C)cc2)n1)OC", "% Inhibition": 94}, {"compound": "CN1CCN(CCCCNC2CC3CCC(C2)N3Cc2ccccc2)CC1", "note": "(configuration not stated)", "% Inhibition": 41}, {"compound": "c1ccc2c(Nc3ccc4[nH]cnc4c3)c3ccccc3nc2c1", "% Inhibition": 102}, {"compound": "CC(C)c1ccc(-c2nc(CN3CCCCC3)cc(CN3CCCCC3)c2O)cc1", "% Inhibition": 92}, {"compound": "CC1CN(c2ccccc2NC(=O)c2ccc(-c3cnco3)cc2)CC(C)O1", "note": "(configuration not stated)", "% Inhibition": -13}, {"compound": "CCN(Cc1cnn(-c2cccc(Cl)c2)c1)CC1CCN(C2CCN(C)CC2)CC1", "% Inhibition": 92}, {"compound": "COCCCN1CCC(Nc2ncnc3cc(C)c(C)cc23)CC1", "% Inhibition": 94}, {"compound": "CN1CCC[C@H](CN2CCN(Cc3cc4n(n3)CCCNC4)CC2)C1", "% Inhibition": -7}, {"compound": "COc1cc2nc(-c3ccc(F)c4cccnc34)nc(N)c2cc1OC", "% Inhibition": 102}, {"compound": "COc1ccc2nc(C)cc(NCc3cccc(NC(=O)c4ccco4)c3)c2c1", "% Inhibition": 105}, {"compound": "CCN1CCN(C[C@@H](C)CNCc2cc(-c3ccccc3)ccc2OC)CC1", "% Inhibition": -4}, {"compound": "CCCc1cccc(CNC2CCN(C3CCN(C)CC3)CC2)c1", "% Inhibition": 71}, {"compound": "COCCN1CC[C@H](CN(C)c2ccnc3cc(Cl)ccc23)C1", "% Inhibition": 102}, {"compound": "Cc1cc(C)c(-c2csc(Nc3ncnc4[nH]ncc34)n2)cc1C", "% Inhibition": -5}]}]}
